From PubChem BioAssay (NCI) come the findings set out here.

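These data come from cells grown in 96-well plates and exposed to compound for 48 hours at five concentrations. The concentration for 50% growth inhibition is given as GI50. TGI: total growth inhibition.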 A value given as a limit tells only on which side of the number the result lay.

The subject of the assay is NCI-H322M lung. Description: NCI-60 cell line screen, 48 h.
`Cn1cc(/C=N/Nc2ccnc3cc(Cl)ccc23)c2ccccc21`: the GI50 is 1.44 µM and the TGI is 2.75 µM.
The like results for `CCN1CCN(Cc2ccc(C(=O)Nc3cccc(-c4cn(-c5ccc6oc(=O)ccc6c5)nn4)c3)cc2C(F)(F)F)CC1` were, in that order, 16.9 µM and 30.8 µM.
The like results for `CCOc1ccccc1[C@H]1C(C(=O)c2ccc(Cl)cc2)C2(N[C@@H]1c1ccccc1)C(=O)Nc1ccc(Cl)cc12` (stereo partly specified) were, in that order, over 18.8 µM and over 18.8 µM.
